Measurements taken from PubChem BioAssay AID686970 (National Center for Advancing Translational Sciences (NCATS), 2013).
The whole screen tested about 360,000 compounds, of which about 6,000 (1.7%) were called active. Inconclusive results, whose numbers are uncertain, are shown with a selection of clear calls. The call rests on the fitted dose curve; in most records, active means well fitted cell-killing curve with a large enough effect; inconclusive means small, poorly fitted or top-dose-only effect, or effect the other way; inactive means flat fitted curve, though single readings scatter. No potency is given beside an inconclusive call; the fits are too rough.

Test: qHTS for induction of synthetic lethality in tumor cells producing 2HG: qHTS for the HT-1080-NT fibrosarcoma cell line;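 further: NT is the 2HG producing partner of a matched IDH1 knockdown line; nearly all actives have a fitted effect of over 55% in size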;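 on activity, negative = less viability: 0% = DMSO-treated cells and -100% = media-only wells without cells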
Details: HT-1080-NT fibrosarcoma viability, CellTiter-Glo ATP luminescence, 48 h; activity, negative = less viability: at 46.1 µM (top of the series) unless noted
Outline: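 Fibrosarcoma NT cells, 750 per well in 5% FBS RPMI, were exposed to compound for 48 hours. Viability: CellTiter-Glo luminescence.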
Potency means the concentration at half of the fitted maximal effect; tags describe the fitted curve by direction and shape.

SMILES	Potency	activity, negative = less viability
CCOc1ccc(CCN2C(=S)N([C@@H](CC(C)C)CN3CCCC3CN3C(=S)NC[C@@H]3Cc3ccc(O)cc3)C[C@@H]2Cc2ccc(O)cc2)cc1 (some centres not stated)	inconclusive [cytotoxic, single point]	
CC1CCCC(C)N1C(=O)COC(=O)c1ccc[nH]c1=O (configuration not stated)	inconclusive [rising, partial curve]	
COc1cc(/C=C(/C(=O)c2cccs2)c2nc3ccccc3[nH]2)ccc1O	active: 7.94 µM	
Cn1c(=O)c2cc(NC(=O)Cc3ccccc3F)ccc2n1-c1ccc(C(C)(C)C)cc1	inconclusive [cytotoxic, partial curve]	
C=CCN1C=CC(=O)[C@@H](OC(=O)Nc2ccc(Br)cc2)[C@H]1c1ccccc1Br	inconclusive [cytotoxic, partial curve]	
COC(C[C@H](O)C[C@@H](O)[C@H](C)OCc1ccccc1)OC	inconclusive [rising, single point]	
CCCc1cc(C(=O)OCC(=O)NCCc2ccccc2)sc1C		inactive: 12.4%
CCCc1cc(=O)[nH]c(SCC(=O)Nc2cc(S(=O)(=O)N3CCCCC3)ccc2C)n1	active: 10.3 µM	
COc1ccc(OC)c(NS(=O)(=O)c2ccc(NC(=O)C3COc4ccccc4O3)cc2)c1 (configuration not stated)	inconclusive [cytotoxic, single point]	
CC(C)(C)NS(=O)(=O)c1ccc(NC(=O)C(Sc2ccccc2)c2ccccc2)cc1 (configuration not stated)	inconclusive [cytotoxic, single point]	
O=C(CNC(=O)c1ccccc1Cl)N/N=C/c1ccc([N+](=O)[O-])s1	inconclusive [cytotoxic, single point]	
Cc1ccccc1-c1ccc(Nc2ccc(N3CCOCC3)cc2)nn1		inactive: -1.4%
O=C(N/N=C/c1c(O)n(Cc2ccccc2)c(=O)c2ccccc12)c1cccnc1	active: 13 µM	
Cc1cc2cc3c(cc2nc1SCC(=O)N1c2ccccc2CC1C)OCO3 (configuration not stated)	inconclusive [cytotoxic, single point]	
Cc1cc(C)c2c(N)c(C(=O)NCc3ccco3)sc2n1		inactive: 20.1%
O=Nc1c(O)[nH]c2ccc(Cl)c(Cl)c12	inconclusive [cytotoxic, single point]	
CCOc1ccc(/C=C/C(=O)c2ccc(-c3ccccc3)cc2)cc1		inactive: -2.58%
CCC1=C/C(=C/c2sc3ccccc3[n+]2CC)CC(C)(C)C1	active: 23.1 µM	
Cc1ccc2cccc(NC(=S)NC(=O)c3ccn(C)n3)c2n1	active: 7.94 µM	
Cc1c(C2(O)CCCCC2)[nH]c2cc(C(F)(F)F)ccc12	inconclusive [cytotoxic, single point]	
COc1ccc(C(=O)NC(=S)Nc2cc(C)ccn2)cc1[N+](=O)[O-]		inactive: -24.5%

SMILES	Potency	activity, negative = less viability
COc1ccc2c(c1)OC(O)(C(F)(F)C(F)F)CC2=O (configuration not stated)	inconclusive [cytotoxic, single point]	
CC(C)(C)C(=O)Nc1nnc([C@H]2C[C@H](O)[C@@H](CO)O2)s1		inactive: 26.2%
Cc1cccc(N2CCN(C(=O)c3ccc(S(=O)(=O)N(C)c4ccccc4)cc3)CC2)c1C	inconclusive [cytotoxic, full curve, poor fit]	
Cc1ccc(NC(=O)C2CCN(S(=O)(=O)c3ccc4c(c3)NC(=O)C(C)S4)CC2)cc1C (configuration not stated)	inconclusive [cytotoxic, single point]	
Cc1cccc(N(Cc2ccccc2)C(=O)c2ccc(F)c(S(=O)(=O)N3CCOCC3)c2)c1		inactive: 6.36%
Cc1cccc(-n2c(SCc3ccc(C#N)cc3)nnc2-c2c[nH]c3ccccc23)c1	inconclusive [cytotoxic, single point]	
O=C(Nc1cccc(-c2csc(Nc3cccc(C(F)(F)F)c3)n2)c1)c1cc([N+](=O)[O-])cc(C(F)(F)F)c1		inactive: -2.03%
CN(C)C(=O)Cn1cnc2c(cnn2-c2ccccc2Cl)c1=O		inactive: -0.274%
Cc1cc(NCCCn2ccnc2)n2ncc(-c3ccccc3)c2n1	inconclusive [cytotoxic, partial curve]	
Cc1ccc(-n2c(-c3ccc(Br)cc3)c[n+]3c2CCc2ccc4cccnc4c2-3)cc1	inconclusive [cytotoxic, single point]	
CN1CCN(CC(=O)Nc2c(C(=O)c3ccccc3)oc3ccccc23)CC1	active: 23.1 µM	
COc1cccc2c1C(=O)c1c(O)c3c(c(O)c1C2=O)C[C@@](O)(C(=O)CO)C[C@@H]3O[C@H]1C[C@H](N)[C@@H](O)[C@H](C)O1	active: 0.259 µM	
CS(=O)(=O)NNC(=O)c1sccc1OCc1ncc(C(F)(F)F)cc1Cl	inconclusive [cytotoxic, single point]	
Oc1[nH]c2ccccc2c1C1=NCCCC1	inconclusive [rising, partial curve]	
O=C(NCCc1ccccc1)N1c2ccccc2Sc2ccccc21	inconclusive [cytotoxic, single point]	
Cc1cc(C)c(C)c(S(=O)(=O)N2CCC(C(=O)NCCCN3CCOCC3)CC2)c1C		inactive: -11%
O[C@H]1C[C@H](c2ccc(Cl)cc2)N(Cc2cccs2)C[C@@H]1n1cc(-c2ccc(F)cc2)nn1	inconclusive [cytotoxic, single point]	
Cc1ccc(C(=O)N/N=C/c2nc3ccccc3n2C)cc1	active: 8.91 µM	
CC(=O)O[C@@H](C[C@@H](C)C1=C2C[C@H](O)C3[C@@]4(C)CCC(=O)C(C)(C)C4CC[C@]3(C)[C@@]2(C)CC1)[C@H]1OC1(C)C (some centres not stated)	inconclusive [cytotoxic, single point]	
O=C(Nc1ccc(F)c(Cl)c1)c1cc(C2CCCCN2C(=O)c2ccccc2)on1 (configuration not stated)	inconclusive [cytotoxic, partial curve, poor fit]	
O=c1[nH]c(=S)[nH]c2c1[C@H](CCc1cccc(Cl)c1)O[C@H](C1CCCC1)C2	inconclusive [cytotoxic, single point]	
